The record followed here is ChEMBL document CHEMBL1201862, “PubChem BioAssay data set” (2004).

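Step 1: Grow cells in 96-well plates. Step 2: Expose to compound for 48 hours at 5 concentrations. Step 3: Interpolate endpoints linearly; if unreached, use highest concentration. The concentration for 50% growth inhibition is given as GI50.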 Calls of active or inactive are those of the source. Rule as the data show it: active = GI50 up to about 1.1 µM and inactive = higher.

The test system of this test is NCI-H322M. Nature of the test: NCI-60 cell line screen, 48 h.
Consider `O=C(CCc1ccc(O)c(O)c1)NCCc1cc(O)c(O)c(O)c1`, for which the GI50 was inactive: 32.1 µM.

In the case of `COC(=O)c1ccc(NCc2cc(O)ccc2O)cc1O`, the GI50 was inactive: 13.5 µM.

As to `COC1=CC23CCCN2CCc2cc4c(cc2C3C1O)OCO4` (configuration not stated), the GI50 is inactive: 65.2 µM.

With `CCOC(=O)C(NC(=O)c1ccccc1)(N1CCOCC1)C(F)(F)F` (configuration not stated), the GI50 was inactive: > 100 µM.

Consider `C/C(=N\N=C(/S)N1CC2CCC(CC2)C1)c1cccc[n+]1[O-]`, for which the GI50 is inactive: 9.16 µM.

On to `O=C(NCCN1CCOCC1)c1cn2c(ccc3sc4ccccc4c(=O)c32)n1`, for which the GI50 was inactive: 8.11 µM.

`CCN(CC)c1ccc(C2NC(=O)c3ccccc3N2)cc1` (configuration not stated): the GI50 was inactive: 5.09 µM.

Regarding `COc1ccc(-n2sc3ncc([N+](=O)[O-])cc3c2=O)cc1`, the GI50 is inactive: > 100 µM.

Turning to `CCOC(=O)C(Cc1ccc(O)cc1)Nc1nc(=O)c2c(=O)oc(Cl)cc2o1` (configuration not stated), the GI50 is inactive: 17.1 µM.

Turning to `CCCCCCCC(CC(=O)NC(CO)C(=O)NC(CO)CC(C)C)OC(=O)CC(CCCCCCC)OC(=O)CC(CCCCCCC)OC1OC(C)C(O)C(OC2OC(C)C(O)C(OC(C)=O)C2O)C1O` (configuration not stated), the GI50 was inactive: 13.3 µM.

Turning to `Nc1ccc(C(=O)N/C(=C\c2cccc([N+](=O)[O-])c2)c2nc3cc(Cl)ccc3[nH]2)cc1`, the GI50 was inactive: > 100 µM.

As for `CCN(CC)C(=O)C/C(C)=N/NC(=O)c1ccncc1`, the GI50 was inactive: > 100 µM.

With `CC(=O)/C=C1\CC(=O)Nc2ccccc2N1`, the GI50 was inactive: > 100 µM.

As for `CCN(CC)Cc1ccccc1CC(=O)N1c2ccccc2C(=O)Nc2cccnc21`, the GI50 was inactive: > 100 µM.

Regarding `O=c1c2ccccc2nc(N/N=C/c2ccc(Cl)cc2)n1-c1ccccc1`, the GI50 was inactive: > 100 µM.

In the case of `O=C1CC(C(=O)N2CCCCC2)n2c(=O)n(-c3ccccc3)c(=O)n2C1` (configuration not stated), the GI50 was inactive: > 100 µM.

`CNC(=S)c1nnsc1N`: the GI50 is inactive: > 100 µM.

As to `O=C(O)CCC(C(=O)O)N1C(=O)C2C3CCC(C3)C2C1=O` (configuration not stated), the GI50 was inactive: > 100 µM.

For `CC(CO)CCC(O)C(C)(O)C1CCC2(O)C3=CC(=O)C4CC(O)C(O)CC4(C)C3CCC12C` (configuration not stated), the GI50 is inactive: > 100 µM.

For `C/N=c1\ss/c(=N\C(=S)N(C)C)n1C`, the GI50 was inactive: > 100 µM.

As to `C/C=C/C=N/N(c1nnc(-c2ccccc2)c(-c2ccccc2)n1)S(=O)(=O)c1ccc(C)cc1`, the GI50 was inactive: 19.6 µM.

For the compound `O=C(CN1CCCCC1)CC(O)(C(F)(F)F)C(F)(F)F`, the GI50 is inactive: > 100 µM.

With `Cc1ccc(C)n2c1nc1ccc3ccccc3c12`, the GI50 was inactive: > 100 µM.

`C=CCC1C(=O)Nc2cccc3ncn(c23)C1=O` (configuration not stated): the GI50 is inactive: > 100 µM.

In the case of `CCOC(=O)/C=C(\C)c1ccc(C)cc1C`, the GI50 is inactive: 81.5 µM.

`COc1cc2c3c(c1)CCCN3CCC2`: the GI50 is inactive: > 10 µM.

Regarding `Cc1ccc(S(=O)(=O)N2CCN(S(=O)(=O)c3ccc(C)cc3)CCN(S(=O)(=O)c3ccc(C)cc3)Cc3cc(C#N)c(C#N)cc3CN(S(=O)(=O)c3ccc(C)cc3)CC2)cc1`, the GI50 is inactive: > 100 µM.

In the case of `CN(C)CCC(=O)[C@@]1(O)CC[C@H]2[C@@H]3CC=C4C[C@@H](O)CC[C@]4(C)[C@H]3CC[C@@]21C`, the GI50 was inactive: 28.7 µM.

As to `O=C(/C=C/c1ccco1)CC(=O)/C=C/c1ccco1`, the GI50 was inactive: > 10 µM.

`BrC1=C(Br)C2(SCCS2)[C@H]2C[C@@H]1c1ccccc12`: the GI50 was inactive: 83 µM.

As to `CC1(c2ccc(Cl)cc2)c2ccccc2C(=O)N1CCCN1C(=O)c2ccccc2C1=O` (configuration not stated), the GI50 was inactive: 34.8 µM.

On to `COc1ccc2c[n+](C)c3c4cc(OC)c(OC)cc4ccc3c2c1`, for which the GI50 is inactive: 5.05 µM.

In the case of `Nc1ccc(S(=O)(=O)Nc2nc3ccccc3nc2Nc2ccc(S(N)(=O)=O)cc2)cc1`, the GI50 was inactive: 57.7 µM.

As to `O=c1[nH]nc(Cc2ccccc2)n1O`, the GI50 is inactive: > 100 µM.

Regarding `Cc1cccc(C)c1NC(=O)CCC/C(CC(=O)c1ccc(F)cc1)=N\NC(=O)C(=O)NN`, the GI50 was inactive: > 100 µM.

Take `CCCC[C@H]1CCN2C[C@@H](O)[C@@H](O)[C@H]2[C@@H]1O`: the GI50 was inactive: > 100 µM.

`COc1ccc(-n2c(-c3ccccc3)cc(-c3cccs3)c2-c2cccs2)cc1`: the GI50 is inactive: > 100 µM.

For the compound `CCCCCCCCCCCCCC(=O)OCC(CCS(=O)(=O)O[C@H]1CC[C@@]2(C)C(=CC[C@@H]3C2CC[C@]2(C)C(=O)CCC32)C1)OC(=O)CCCCCCCCCCCCC` (some centres not stated), the GI50 is inactive: > 100 µM.

Consider `N#CC(OC1OC(COC2OC(CO)C(O)C(O)C2O)C(O)C(O)C1O)c1ccccc1` (configuration not stated), for which the GI50 is inactive: > 225 µM.

On to `Nc1nc(S)c2c(N)n[nH]c2c1C(=O)Nc1ccccc1`, for which the GI50 was inactive: > 100 µM.

As to `CC1(C)Oc2ccc3c(=O)cc(-c4ccccc4)oc3c2C1C(=O)O` (configuration not stated), the GI50 is inactive: > 100 µM.

Take `COC(=O)CC(=O)NCC1=CCC(=O)CC1`: the GI50 is inactive: > 100 µM.

For `CCC1C(C)c2c([nH]c3ccccc23)C2C(=O)N(c3ccccc3)C(=O)C21` (configuration not stated), the GI50 is inactive: 22.2 µM.

As to `CCCCCCCCCCCCCCCCOC(=O)C(C(=O)OCCCCCCCCCCCCCCCC)[N+](C)(C)CCOC(C)=O`, the GI50 was inactive: 15.6 µM.

With `COc1ccc(NC(=O)C/C(C)=N\N=C(N)N)c([N+](=O)[O-])c1`, the GI50 is inactive: > 100 µM.

Regarding `O=[N+]([O-])c1ccc(Cl)c(/C=N/C23CC4CC(CC(C4)C2)C3)c1`, the GI50 is inactive: > 10 µM.

For the compound `COc1ccc(/C=c2/sc3n(c2=O)NC(c2ccc(Cl)cc2)NN=3)cc1` (configuration not stated), the GI50 was inactive: > 100 µM.

For `Cc1c(/N=N/c2ccccc2)c(C)n(C2OC(CO)C(O)C(O)C2O)c(=S)c1C#N` (configuration not stated), the GI50 is inactive: 56.6 µM.

With `O=C(/C=C/c1ccc(OCCSCCCCCCCCCCSCCOc2ccc(/C=C/C(=O)c3ccc(Cl)cc3)cc2)cc1)c1ccc(Cl)cc1`, the GI50 was inactive: > 100 µM.

Turning to `C#CC1(O)CCC2C3CCc4cc(Oc5nc(F)nc(-c6c7ccccc7c7n6CCS7)n5)ccc4C3CC[C@@]21C` (some centres not stated), the GI50 is inactive: 32 µM.

For `CC(C)=CCC[C@@H](C)C1=C(N)C(=O)C(C)=C(O)C1=O`, the GI50 is inactive: 46.7 µM.

Take `Cc1cc(Cl)ccc1NC(=O)C(=O)C(C(=O)c1ccc2ccccc2c1)C1OC(=O)c2ccccc21` (configuration not stated): the GI50 is inactive: 8.39 µM.

Take `O=C1CCCC2=C1C(c1ccc3c(c1)OCO3)Nc1ccc3ccccc3c12` (configuration not stated): the GI50 is inactive: > 100 µM.

For `C=C1CC2(CC(c3ccccc3OC)OC(c3ccccc3OC)C2)OC1=O` (configuration not stated), the GI50 was inactive: 15.1 µM.

Regarding `O=C(Nc1cccc(C(F)(F)F)c1)C(=O)C(C(=O)c1ccc2ccccc2c1)C1OC(=O)c2ccccc21` (configuration not stated), the GI50 was inactive: 8.36 µM.

Consider `[N-]=[N+]=C1C(=O)C2CC3CC(C2)CC1C3`, for which the GI50 was inactive: > 100 µM.

Regarding `O=C(N/N=C\c1ccc([N+](=O)[O-])cc1)Nc1ccc2ccccc2c1`, the GI50 is inactive: 92.9 µM.

`N#CC(C#N)/N=N/c1ccc(-c2nc3ccccc3o2)cc1`: the GI50 is inactive: 23.3 µM.

As to `NC(Cc1ccnnc1)C(=O)O` (configuration not stated), the GI50 is inactive: > 100 µM.

For the compound `CC(=O)OC1COC(n2c3ccccc3c3ccc4c5ccccc5[nH]c4c32)C(OC(C)=O)C1OC(C)=O` (configuration not stated), the GI50 was inactive: 52 µM.

For `CC1(C)Cc2c(oc3ncnc(N)c23)CS1`, the GI50 is inactive: > 100 µM.

As to `COc1cc(CNNC(N)=S)cc(OC)c1OC`, the GI50 was inactive: > 100 µM.

Take `CN(C)c1ccc(/C=C2\C[C@H]3[C@@H]4CCc5cc(OCCN6CCCC6)ccc5[C@H]4CC[C@]3(C)C2=O)cc1`: the GI50 was inactive: 2.06 µM.

Regarding `O=C1C(Cl)N(c2cccc([N+](=O)[O-])c2)C1c1c[nH]c2ccccc12` (configuration not stated), the GI50 was inactive: 18.3 µM.

Regarding `CC(C)c1ccccc1NC(=O)CCC(=O)NN`, the GI50 is inactive: > 100 µM.

On to `COC(=O)c1cc(Cl)ccc1NC(=O)C1CCCCC1`, for which the GI50 is inactive: 91.8 µM.

On to `O=C1CC(=O)NC(NNS(=O)(=O)c2ccccc2)=N1`, for which the GI50 is inactive: > 100 µM.

Consider `O=C1Nc2ccc(S(=O)(=O)NCCO)cc2/C1=C1/Nc2ccccc2C1=O`, for which the GI50 was inactive: 6.52 µM.

For `Cc1ccc(Nc2ncnc3sc(SCc4ccccc4)nc23)cc1`, the GI50 is inactive: > 100 µM.

Consider `O=C(O)C1Cc2ccccc2OC1=O` (configuration not stated), for which the GI50 was inactive: > 100 µM.

As for `CCN1C[C@]2(C)CC[C@H](O)C34C1C(C[C@@H]32)[C@@]1(O)CC[C@H]2C[C@@H]4[C@@H]1[C@H]2O`, the GI50 was inactive: > 100 µM.

For the compound `CC1=C2C(=CC(C)(C)C2O)C(=O)C(C)(O)C12CC2` (configuration not stated), the GI50 was active: 0.0395 µM.

On to `CC(=O)O[C@@H]1CC(C)C2CC2C2=C(C(O)OC2O)[C@@H]1C(C)CCC=C(C)C` (some centres not stated), for which the GI50 is inactive: 26.5 µM.

Take `CC(=O)OC[C@H]1[C@@H]2C(CC[C@]13CO3)OC(=O)CC(C)[C@]2(C)CCc1ccoc1` (some centres not stated): the GI50 is inactive: > 100 µM.

Consider `CC(NC1CCCC[C@H]1O)c1ccccc1` (some centres not stated), for which the GI50 was inactive: > 100 µM.

Turning to `CC(=O)[C@]1(O)Cc2c(O)c3c(c(O)c2C(OC2OC(C)C(O)C(O)C2F)C1)C(=O)c1ccccc1C3=O` (some centres not stated), the GI50 was active: 0.544 µM.

Take `C#CCOCn1cnc2c(Sc3c([N+](=O)[O-])ncn3C)ncnc21`: the GI50 was inactive: > 100 µM.

Consider `CNC(=O)OCc1nc(SC2CCCCO2)n(C)c1COC(=O)NC` (configuration not stated), for which the GI50 was inactive: > 100 µM.

With `CC(=O)c1cc2c(s1)C(=O)c1scc(C(C)=O)c1C2=O`, the GI50 was active: 0.469 µM.

For the compound `COc1ccc2cc3[n+](cc2c1OC)CCc1cc(O)c(O)cc1-3`, the GI50 is inactive: > 100 µM.

Consider `CC(=O)Oc1ccc2[nH]c3c(C)c4cccc-4ccc3c2c1`, for which the GI50 was inactive: 2.29 µM.

As for `CCN(CC)CCNc1ccc2ncn3c4cc(OC)c(OC)c(O)c4c(=O)c1c23`, the GI50 was inactive: 4.06 µM.
